We go through two molecules from patent US20150183871A1 (AbbVie / Abbott, published 2015).

The target in assay [1] is T1, recombinant human BMP-4 protein (human, UniProt P12644 293-408).
T1 construct: Bought protein; also called bone morphogenetic protein 4 (R&D Systems #314-BP)
T1 sequence (looked up): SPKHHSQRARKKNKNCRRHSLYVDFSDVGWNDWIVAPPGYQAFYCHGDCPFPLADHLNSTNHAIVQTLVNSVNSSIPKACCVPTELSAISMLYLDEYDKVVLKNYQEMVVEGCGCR
Nature of the assay: solid phase ELISA, coated BMP-4, figure legend.

For assay [2], the target named is T2, recombinant human BMP-2 protein (human, UniProt P12643 283-396).
T2 construct: Bought protein
T2 sequence (looked up): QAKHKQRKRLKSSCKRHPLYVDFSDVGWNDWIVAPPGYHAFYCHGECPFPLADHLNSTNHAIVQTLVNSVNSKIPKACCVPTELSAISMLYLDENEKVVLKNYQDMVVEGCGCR
The assay is described as follows: solid phase ELISA, coated BMP-2, figure legend.

Assay [3] deals with T3, extracellular domain of the His-tagged human Neogenin protein (human, UniProt Q92859 34-1105).
T3 construct: extracellular domain; His-tagged
T3 sequence (looked up): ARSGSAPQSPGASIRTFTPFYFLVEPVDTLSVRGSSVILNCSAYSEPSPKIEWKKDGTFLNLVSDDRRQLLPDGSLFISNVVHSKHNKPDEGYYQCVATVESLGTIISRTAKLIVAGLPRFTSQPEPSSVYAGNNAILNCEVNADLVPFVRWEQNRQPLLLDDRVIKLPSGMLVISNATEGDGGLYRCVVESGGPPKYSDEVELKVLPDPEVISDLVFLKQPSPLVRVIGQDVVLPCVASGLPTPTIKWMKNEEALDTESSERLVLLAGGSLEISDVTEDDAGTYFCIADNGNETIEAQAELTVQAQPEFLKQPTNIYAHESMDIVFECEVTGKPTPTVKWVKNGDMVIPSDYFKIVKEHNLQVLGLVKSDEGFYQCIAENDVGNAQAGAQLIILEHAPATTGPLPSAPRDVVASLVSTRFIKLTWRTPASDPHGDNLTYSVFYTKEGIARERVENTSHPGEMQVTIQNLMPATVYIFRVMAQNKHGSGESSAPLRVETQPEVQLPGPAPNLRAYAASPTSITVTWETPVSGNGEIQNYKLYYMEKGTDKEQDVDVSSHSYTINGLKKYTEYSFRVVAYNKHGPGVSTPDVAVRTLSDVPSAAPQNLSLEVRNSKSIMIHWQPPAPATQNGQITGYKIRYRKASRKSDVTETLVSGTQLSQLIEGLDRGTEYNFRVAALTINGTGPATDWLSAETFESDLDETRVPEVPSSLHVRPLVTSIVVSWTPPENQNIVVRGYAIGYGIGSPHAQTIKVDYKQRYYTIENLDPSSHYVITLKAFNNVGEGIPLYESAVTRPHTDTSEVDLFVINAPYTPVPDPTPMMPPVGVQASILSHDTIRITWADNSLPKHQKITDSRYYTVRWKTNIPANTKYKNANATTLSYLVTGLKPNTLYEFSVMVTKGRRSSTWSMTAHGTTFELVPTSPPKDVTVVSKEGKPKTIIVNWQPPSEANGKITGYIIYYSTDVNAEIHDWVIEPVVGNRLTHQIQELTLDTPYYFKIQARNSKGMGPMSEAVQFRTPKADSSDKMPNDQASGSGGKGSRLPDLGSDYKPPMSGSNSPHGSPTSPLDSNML
Nature of the assay: solid phase ELISA, coated Neogenin.

B1: fc-coupled human RGM A light chain, fragment 0 (47-168) (Fc fusion)
chain: DAAQPARRARRTKLPCKILKCNSEFWSATSGSHAPASDDTPEFCAALRSYALCTRRTARTCRGDLAYHSAVHGIEDLMSQHNCSKDGPTSQPRLRTLPPAGDSQERSDSPEICHYEKSFHKHSATPNYTHCGLFGDLNSADIEGRMD[… human IgG1 Fc …]
notes: also called hRGM A light chain - fc; hRGMA 47-168/HuIgGFc
Regarding B1, the binding result in assay [1] is on record as “binds”.

B2: fc-coupled full length human RGM A (47-422) (Fc fusion)
chain: DAAQPARRARRTKLPCKILKCNSEFWSATSGSHAPASDDTPEFCAALRSYALCTRRTARTCRGDLAYHSAVHGIEDLMSQHNCSKDGPTSQPRLRTLPPAGDSQERSDSPEICHYEKSFHKHSATPNYTHCGLFGDPHLRTFTDRFQTCKVQGAWPLIDNNYLNVQVTNTPVLPGSAATATSKLTIIFKNFQECVDQKVYQAEMDELPAAFVDGSKNGGDKHGANSLKITEKVSGQHVEIQAKYIGTTIVVRQVGRYLTFAVRMPEEVVNAVEDWDSQGLYLCLRGCPLNQQIDFQAFHTNAEGTGARRLAAASPAPTAPETFPYETAVAKCKEKLPVEDLYYQACVFDLLTTGDVNFTLAAYYALEDVKMLHSNKDKLHLYERTRDLPGLNSADIEGRMD[… human IgG1 Fc …]
notes: the legends call the protein fc-coupled full length hRGM A fragment (47-422, counted on hRGM A); also called full length fc-conjugated hRGM A; Human RGM A-fc
On to B2, for which the binding result in assay [2], in assay [1] and in assay [3] was “binds” throughout.
